# The list shows a part of the results.
# Key:
# HSkMC = human skeletal muscle cells; assay: cytotoxicity call (relative viability < 0.9); conditions: 10 µM
# HepG2 = assay: cytotoxicity call (relative viability < 0.9); conditions: 10 µM
# S. aureus RN4220 = assay: growth inhibition call (relative growth <= 0.2); conditions: 50 µM
Structure (SMILES),cytotoxicity call (HSkMC),cytotoxicity call (HepG2),growth inhibition call (S. aureus RN4220)
COc1ccc2c3c(n(c2c1)C)[C@@H](CO)N(C[C@]13CN(Cc2cccnc2)C1)S(=O)(=O)c1ccc(cc1)C,inactive,inactive,inactive
CO[C@@H]1CN(C)C(=O)c2ccc(NC(=O)C3CC3)cc2OC[C@@H](C)N(C(=O)Cc2ccccn2)C[C@@H]1C,inactive,inactive,inactive
Oc1cc(C2CCCCC2)cc(C2CCCCC2)c1,inactive,inactive,active
C[C@@H]1CCCCO[C@@H](CN(C)S(=O)(=O)c2cn(C)cn2)[C@H](C)CN([C@@H](C)CO)C(=O)c2cc(NS(=O)(=O)c3ccc(F)cc3)ccc2O1,inactive,inactive,inactive
C[C@@H]1CCCCO[C@H](CN(C)S(=O)(=O)c2cccs2)[C@@H](C)CN([C@H](C)CO)C(=O)c2cc(NC(=O)CCC(F)(F)F)ccc2O1,inactive,inactive,inactive
Nc1ncn(Cc2ccccc2)n1,inactive,inactive,inactive
CN1C(=O)c2cc(NC(=O)c3ccc(F)cc3)ccc2OC[C@H]2O[C@@H](CC(=O)N3CCOCC3)CC[C@H]21,inactive,inactive,inactive
C[C@H]1CN([C@@H](C)CO)C(=O)c2cc(NS(=O)(=O)c3ccccc3)ccc2O[C@H]1CN(C)Cc1ccc(-c2ccccc2)cc1,inactive,inactive,inactive
COc1ccc2c3c(n(c2c1)C)[C@@H](CO)N(C[C@]13CN(C1)C(=O)CN1CCOCC1)C(=O)Nc1ccc(cc1)F,inactive,inactive,inactive
COCC#Cc1cnc2c(c1)C(=O)N([C@@H](C)CO)C[C@H](C)[C@@H](CN(C)S(=O)(=O)c1cn(C)cn1)O2,inactive,active,inactive
COCC(=O)N1C[C@H](C)[C@H](OC)CN(C)C(=O)c2cc(NC(=O)c3cc(C)on3)ccc2OC[C@@H]1C,inactive,inactive,inactive
CCNC(=O)C[C@@H]1CC[C@@H](NC(=O)C2CC2)[C@H](CO)O1,inactive,inactive,inactive
Cc1ccc(/C=C(\CCC(=O)O)c2nc3ccccc3s2)cc1,inactive,inactive,inactive
CCS(=O)(=O)Nc1ccc2c(c1)C(=O)N(C)[C@@H]1CC[C@H](CC(=O)N3CCN(C)CC3)O[C@H]1CO2,inactive,inactive,inactive
C[C@@H]1CN([C@@H](C)CO)C(=O)c2cc(NC(=O)Nc3cccc4ccccc34)ccc2O[C@@H]1CN(C)CC1CCCCC1,inactive,inactive,inactive
C[C@@H]1CN([C@H](C)CO)C(=O)c2cccc(NC(=O)c3ccc(-c4nccs4)cc3)c2O[C@@H]1CN(C)CC1CCCCC1,inactive,inactive,inactive
C[C@H](O)C#Cc1ccc2c(c1)O[C@@H](CN(C)C)[C@H](C)CN([C@@H](C)CO)S2(=O)=O,inactive,inactive,inactive
COCC#Cc1cnc2c(c1)C(=O)N([C@@H](C)CO)C[C@@H](C)[C@@H](CN(C)S(=O)(=O)c1ccccc1)O2,inactive,inactive,inactive
C[C@@H]1CN([C@H](C)CO)C(=O)c2cccc(NS(C)(=O)=O)c2O[C@@H]1CN(C)S(C)(=O)=O,inactive,inactive,inactive

Structure (SMILES),cytotoxicity call (HSkMC),cytotoxicity call (HepG2),growth inhibition call (S. aureus RN4220)
CC(C)NC(=O)Nc1ccc2c(c1)CC(=O)N([C@H](C)CO)C[C@H](C)[C@H](CN(C)S(=O)(=O)c1cccs1)O2,inactive,inactive,inactive
C[C@@H]1CN([C@H](C)CO)C(=O)c2cccc(NS(=O)(=O)c3cccs3)c2O[C@@H]1CN(C)S(=O)(=O)c1cn(C)cn1,inactive,inactive,inactive
C[C@@H]1CN([C@H](C)CO)S(=O)(=O)c2ccc(C#CC3(O)CCCC3)cc2O[C@H]1CN(C)C(=O)Nc1ccccc1,inactive,inactive,inactive
CCOC(=O)CCCCCC(=O)Nc1ccc2c(c1)C(=O)N([C@@H](C)CO)C[C@H](C)[C@H](CN(C)C(=O)Nc1ccc(C(F)(F)F)cc1)OCCCC[C@H](C)O2,inactive,inactive,inactive
O=C(C[C@H]1CC[C@@H]2[C@H](COC[C@@H](O)CN2S(=O)(=O)c2ccc(F)cc2)O1)NCCN1CCCCC1,inactive,inactive,inactive
COCCNC(=O)C[C@H]1CC[C@H]2[C@@H](COC[C@H](O)CN2C(=O)Nc2ccc3c(c2)OCO3)O1,inactive,inactive,inactive
COc1cccc(C#Cc2ccc3c(c2)O[C@H](CN(C)C(=O)CN2CCOCC2)[C@@H](C)CN([C@@H](C)CO)S3(=O)=O)c1,inactive,inactive,inactive
C[C@H](CO)N1C[C@H](C)[C@@H](CN(C)C(=O)Nc2ccccc2)Oc2c(NC(=O)c3cnccn3)cccc2C1=O,inactive,inactive,inactive
Cc1ccc(S(=O)(=O)Nc2cccc3c2O[C@H](CN(C)S(=O)(=O)c2ccccc2)[C@@H](C)CN([C@H](C)CO)C3=O)cc1,inactive,inactive,inactive
CC(C)C#Cc1ccc2c(c1)O[C@@H](CN(C)S(=O)(=O)c1cn(C)cn1)[C@H](C)CN([C@H](C)CO)S2(=O)=O,inactive,inactive,inactive
CS(=O)(=O)O.OC(CCN1CCCCC1)(c1ccccc1)c1ccccc1,inactive,inactive,inactive
COc1ccc(NC(=O)Nc2ccc3c(c2)C(=O)N([C@H](C)CO)C[C@H](C)[C@@H](CN(C)Cc2ccncc2)OCCCC[C@@H](C)O3)cc1,inactive,inactive,inactive
O=C(C[C@@H]1C[C@@H]2c3cc(NS(=O)(=O)c4ccc(F)cc4)ccc3O[C@@H]2[C@@H](CO)O1)NC1CCCC1,inactive,inactive,inactive
CNC(=O)C[C@@H]1CC[C@@H]2[C@H](COC[C@@H](O)CN2C(=O)Nc2cccc(OC)c2)O1,inactive,inactive,inactive
C[C@@H]1CN([C@H](C)CO)C(=O)Cc2cc(NC(=O)Nc3ccc(C(F)(F)F)cc3)ccc2O[C@@H]1CN(C)C(=O)NC1CCCCC1,active,active,inactive
C[C@H](CO)N1C[C@H](C)[C@H](CN(C)S(=O)(=O)c2cn(C)cn2)Oc2ccc(NC(=O)C3CCCCC3)cc2CC1=O,inactive,inactive,inactive
C[C@H](CO)N1C[C@H](C)[C@@H](CN(C)C(=O)Nc2cccc3ccccc23)Oc2ccc(NC(=O)Nc3ccccc3)cc2C1=O,inactive,inactive,inactive
CN1C(CCl)Nc2cc(Cl)c(S(N)(=O)=O)cc2S1(=O)=O (stereo not drawn),inactive,inactive,inactive
CC(C)(CO)NC(=S)NC[C@H]1CCCO1,inactive,inactive,inactive

Structure (SMILES),cytotoxicity call (HSkMC),cytotoxicity call (HepG2),growth inhibition call (S. aureus RN4220)
COc1cccc(C#Cc2ccc3c(c2)O[C@H](CN(C)C(C)=O)[C@H](C)CN([C@@H](C)CO)S3(=O)=O)c1,inactive,inactive,inactive
Cc1noc(C)c1NC(=O)N(C)C[C@@H]1OCCCC[C@H](C)Oc2ccc(NS(=O)(=O)c3ccc(F)cc3)cc2C(=O)N([C@@H](C)CO)C[C@@H]1C,inactive,inactive,inactive
COc1ccc(S(=O)(=O)Nc2ccc3c(c2)C(=O)N([C@@H](C)CO)C[C@@H](C)[C@@H](CN(C)Cc2ccc(C(=O)O)cc2)OCCCC[C@@H](C)O3)cc1,inactive,inactive,inactive
Cc1ccc(S(=O)(=O)N2C[C@@H](O)COC[C@@H]3O[C@@H](CC(=O)N[C@@H]4CCN(Cc5ccccc5)C4)CC[C@H]32)cc1,inactive,inactive,inactive
CS(=O)(=O)NCc1nnnn1-c1ccc(F)c(F)c1,inactive,inactive,inactive
COc1ccc(NC(=O)Nc2ccc3c(c2)C(=O)N([C@H](C)CO)C[C@H](C)[C@@H](CN(C)C(=O)NC(C)C)OCCCC[C@H](C)O3)cc1,inactive,inactive,inactive
CCOC(=O)Cc1c(C)[nH]c(=O)[nH]c1=O,inactive,inactive,inactive
O=C(C[C@@H]1C[C@@H]2c3cc(NS(=O)(=O)c4ccccc4)ccc3O[C@@H]2[C@H](CO)O1)NCC(F)(F)F,inactive,inactive,inactive
C[C@@H]1CN([C@H](C)CO)C(=O)c2cccc(NC(=O)c3ccc(-c4nccs4)cc3)c2O[C@H]1CN(C)Cc1ccc2c(c1)OCO2,inactive,inactive,inactive
C[C@@H]1CCCCO[C@@H](CN(C)CC2CCCCC2)[C@@H](C)CN([C@H](C)CO)C(=O)c2cc(NC(=O)CCCCCC(=O)Nc3ccccc3N)ccc2O1,inactive,inactive,inactive
C[C@@H]1CCCCO[C@H](CN(C)Cc2ccc(C(=O)O)cc2)[C@@H](C)CN([C@@H](C)CO)C(=O)c2cc(NS(=O)(=O)c3ccccc3)ccc2O1,inactive,inactive,inactive
C[C@@H]1CCCCO[C@H](CN(C)Cc2ccc(C(F)(F)F)cc2)[C@@H](C)CN([C@H](C)CO)C(=O)c2cc(NC(=O)NC3CCCCC3)ccc2O1,inactive,active,inactive
Cc1ccc(S(=O)(=O)Nc2cccc3c2O[C@@H](CN(C)S(=O)(=O)c2cn(C)cn2)[C@H](C)CN([C@@H](C)CO)C3=O)cc1,inactive,inactive,inactive
C[C@H]1CN([C@@H](C)CO)C(=O)c2cc(NS(=O)(=O)c3cccs3)ccc2O[C@@H]1CN(C)Cc1ccc(Cl)c(Cl)c1,inactive,inactive,inactive
COc1ccccc1NC(=O)N(C)C[C@@H]1Oc2ncc(C#CC(C)C)cc2C(=O)N([C@@H](C)CO)C[C@@H]1C,inactive,inactive,inactive
Cc1cc(C(=O)Nc2cccc3c2O[C@@H](CN(C)S(=O)(=O)c2ccc(Cl)cc2)[C@@H](C)CN([C@@H](C)CO)C3=O)n(C)n1,inactive,inactive,inactive
C[C@@H]1CN([C@@H](C)CO)C(=O)c2cc(-c3cccc(C(=O)N(C)C)c3)cnc2O[C@@H]1CN(C)C(=O)Cc1ccccn1,inactive,inactive,inactive
C[C@H](CO)N1C[C@H](C)[C@@H](CN(C)S(C)(=O)=O)Oc2cc(-c3cccc(F)c3)ccc2S1(=O)=O,inactive,inactive,inactive
